# Test results taken from the supplement of paper PMC8728848.
# This is one part of the list.
# B1: PA-IL (Pseudomonas aeruginosa), Q05097 (protein)
# chain: MAWKGEVLANNEAGQVTSIIYNPGDVITIVAAGWASYGPTQKWGPQGDREHPDQGLICHDAFCGALVMKIGNSGTIPVNTGLFRWVAPNNVQGAITLIYNDVPGTYGNNSGSFSVNIGKDQS
# Experiments:
# Assay in all cases: glycan array binding signal (z-score within array); higher = stronger binding
# Conditions in all cases: glycan notation: IUPAC condensed, linker removed
# [1] = biological target: Neu5Ac(a2-3)Gal(b1-4)GlcNAc(b1-2)Man(a1-3)[GlcNAc(b1-2)Man(b1-4)GlcNAc(b1-2)Man(a1-6)]Man(b1-4)GlcNAc(b1-4)GlcNAc
# Outline: (§1)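 Glycan array binding is given as a within-array Z-score, which can be read as non-binding when negative. The arrays, 3228 of them, came from the Consortium for Functional Glycomics database and were retained only where the protein sequence was available. Z-scores were averaged across arrays of the same protein sequence at different concentrations or buffers and across linkers.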
# [2] = biological target: Neu5Ac(a2-3)Gal(b1-4)GlcNAc(b1-2)Man(a1-3)[GlcNAc(b1-4)][Neu5Ac(a2-3)Gal(b1-4)GlcNAc(b1-2)Man(a1-6)]Man(b1-4)GlcNAc(b1-4)GlcNAc
# Outline: as §1
# [3] = biological target: Neu5Ac(a2-3)Gal(b1-4)GlcNAc(b1-2)Man(a1-3)[Neu5Ac(a2-3)Gal(b1-4)GlcNAc(b1-2)Man(a1-6)]Man(b1-4)GlcNAc(b1-4)GlcNAc
# Outline: as §1
# [4] = biological target: Neu5Ac(a2-3)Gal(b1-4)GlcNAc(b1-2)Man(a1-3)[Neu5Ac(a2-3)Gal(b1-4)GlcNAc(b1-2)Man(a1-6)]Man(b1-4)GlcNAc(b1-4)[Fuc(a1-6)]GlcNAc
# Outline: as §1
# [5] = biological target: Neu5Ac(a2-3)Gal(b1-4)GlcNAc(b1-2)Man(a1-3)[Neu5Ac(a2-6)Gal(b1-4)GlcNAc(b1-2)Man(a1-6)]Man(b1-4)GlcNAc(b1-4)GlcNAc
# Outline: as §1
# [6] = biological target: Neu5Ac(a2-3)Gal(b1-4)GlcNAc(b1-2)[Neu5Ac(a2-3)Gal(b1-4)GlcNAc(b1-4)]Man(a1-3)[GlcNAc(b1-4)][Neu5Ac(a2-3)Gal(b1-4)GlcNAc(b1-2)[Neu5Ac(a2-3)Gal(b1-4)GlcNAc(b1-6)]Man(a1-6)]Man(b1-4)GlcNAc(b1-4)GlcNAc
# Outline: as §1
# [7] = biological target: Neu5Ac(a2-3)Gal(b1-4)GlcNAc(b1-2)[Neu5Ac(a2-3)Gal(b1-4)GlcNAc(b1-4)]Man(a1-3)[GlcNAc(b1-4)][Neu5Ac(a2-3)Gal(b1-4)GlcNAc(b1-4)Man(a1-6)]Man(b1-4)GlcNAc(b1-4)GlcNAc
# Outline: as §1
# [8] = biological target: Neu5Ac(a2-3)Gal(b1-4)GlcNAc(b1-2)[Neu5Ac(a2-3)Gal(b1-4)GlcNAc(b1-6)]Man(a1-6)[Neu5Ac(a2-3)Gal(b1-4)GlcNAc(b1-2)Man(a1-3)]Man(b1-4)GlcNAc(b1-4)GlcNAc
# Outline: as §1
# [9] = biological target: Neu5Ac(a2-3)Gal(b1-4)GlcNAc(b1-2)[Neu5Ac(a2-3)Gal(b1-4)GlcNAc(b1-6)]Man(a1-6)[Neu5Ac(a2-3)Gal(b1-4)GlcNAc(b1-2)Man(a1-3)][GlcNAc(b1-4)]Man(b1-4)GlcNAc(b1-4)GlcNAc
# Outline: as §1
# [10] = biological target: Neu5Ac(a2-3)Gal(b1-4)GlcNAc(b1-3)Gal
# Outline: as §1
# [11] = biological target: Neu5Ac(a2-3)Gal(b1-4)GlcNAc(b1-3)Gal(b1-3)GlcNAc
# Outline: as §1
# [12] = biological target: Neu5Ac(a2-3)Gal(b1-4)GlcNAc(b1-3)Gal(b1-4)GlcNAc
# Outline: as §1
# [13] = biological target: Neu5Ac(a2-3)Gal(b1-4)GlcNAc(b1-3)Gal(b1-4)GlcNAc(b1-2)Man(a1-3)[Neu5Ac(a2-3)Gal(b1-4)GlcNAc(b1-3)Gal(b1-4)GlcNAc(b1-2)Man(a1-6)]Man(b1-4)GlcNAc(b1-4)GlcNAc
# Outline: as §1
# [14] = biological target: Neu5Ac(a2-3)Gal(b1-4)GlcNAc(b1-3)Gal(b1-4)GlcNAc(b1-3)Gal(b1-4)GlcNAc
# Outline: as §1
# [15] = biological target: Neu5Ac(a2-3)Gal(b1-4)GlcNAc(b1-3)Gal(b1-4)GlcNAc(b1-3)Gal(b1-4)GlcNAc(b1-2)Man(a1-3)[Neu5Ac(a2-3)Gal(b1-4)GlcNAc(b1-3)Gal(b1-4)GlcNAc(b1-3)Gal(b1-4)GlcNAc(b1-2)Man(a1-6)]GalNAc
# Outline: as §1
# [16] = biological target: Neu5Ac(a2-3)Gal(b1-4)GlcNAc(b1-3)Gal(b1-4)GlcNAc(b1-3)GalNAc
# Outline: as §1
# [17] = biological target: Neu5Ac(a2-3)Gal(b1-4)GlcNAc(b1-3)Gal(b1-4)GlcNAc(b1-3)[Neu5Ac(a2-3)Gal(b1-4)GlcNAc(b1-3)Gal(b1-4)GlcNAc(b1-6)]GalNAc
# Outline: as §1
# [18] = biological target: Neu5Ac(a2-3)Gal(b1-4)GlcNAc(b1-3)Gal(b1-4)GlcNAc(b1-6)[Gal(b1-3)]GalNAc
# Outline: as §1
# [19] = biological target: Neu5Ac(a2-3)Gal(b1-4)GlcNAc(b1-3)Gal(b1-4)[Fuc(a1-3)]GlcNAc
# Outline: as §1
# [20] = biological target: Neu5Ac(a2-3)Gal(b1-4)GlcNAc(b1-3)GalNAc
# Outline: as §1
# [21] = biological target: Neu5Ac(a2-3)Gal(b1-4)GlcNAc(b1-3)[Neu5Ac(a2-3)Gal(b1-4)GlcNAc(b1-6)]GalNAc
# Outline: as §1
# [22] = biological target: Neu5Ac(a2-3)Gal(b1-4)GlcNAc(b1-6)GalNAc
# Outline: as §1
# [23] = biological target: Neu5Ac(a2-3)Gal(b1-4)GlcNAc(b1-6)[Gal(b1-3)]GalNAc
# Outline: as §1
# [24] = biological target: Neu5Ac(a2-3)Gal(b1-4)GlcNAc(b1-6)[Neu5Ac(a2-3)Gal(b1-3)]GalNAc
# Outline: as §1
# [25] = biological target: Neu5Ac(a2-3)Gal(b1-4)GlcNAc6S
# Outline: as §1
# [26] = biological target: Neu5Ac(a2-3)Gal(b1-4)[Fuc(a1-3)]GlcNAc
# Outline: as §1
# [27] = biological target: Neu5Ac(a2-3)Gal(b1-4)[Fuc(a1-3)]GlcNAc(b1-2)Man
# Outline: as §1
# [28] = biological target: Neu5Ac(a2-3)Gal(b1-4)[Fuc(a1-3)]GlcNAc(b1-3)Gal
# Outline: as §1
# [29] = biological target: Neu5Ac(a2-3)Gal(b1-4)[Fuc(a1-3)]GlcNAc(b1-3)Gal(b1-4)GlcNAc
# Outline: as §1
# [30] = biological target: Neu5Ac(a2-3)Gal(b1-4)[Fuc(a1-3)]GlcNAc(b1-3)Gal(b1-4)[Fuc(a1-3)]GlcNAc(b1-3)Gal(b1-4)[Fuc(a1-3)]GlcNAc
# Outline: as §1
# [31] = biological target: Neu5Ac(a2-3)Gal(b1-4)[Fuc(a1-3)]GlcNAc(b1-3)GalNAc
# Outline: as §1
# [32] = biological target: Neu5Ac(a2-3)Gal(b1-4)[Fuc(a1-3)]GlcNAc(b1-6)[Gal(b1-3)]GalNAc
# Outline: as §1
# [33] = biological target: Neu5Ac(a2-3)Gal(b1-4)[Fuc(a1-3)]GlcNAc(b1-6)[Neu5Ac(a2-3)Gal(b1-3)]GalNAc
# Outline: as §1
# [34] = biological target: Neu5Ac(a2-3)Gal(b1-4)[Fuc(a1-3)]GlcNAc6S
# Outline: as §1
# [35] = biological target: Neu5Ac(a2-3)Gal6S(b1-4)GlcNAc
# Outline: as §1
# [36] = biological target: Neu5Ac(a2-3)Gal6S(b1-4)[Fuc(a1-3)]GlcNAc
# Outline: as §1
# [37] = biological target: Neu5Ac(a2-3)GalNAc
# Outline: as §1
# [38] = biological target: Neu5Ac(a2-3)GalNAc(b1-4)GlcNAc
# Outline: as §1
# [39] = biological target: Neu5Ac(a2-3)[GalNAc(b1-4)]Gal(b1-4)Glc
# Outline: as §1
# [40] = biological target: Neu5Ac(a2-3)[GalNAc(b1-4)]Gal(b1-4)GlcNAc
# Outline: as §1
# [41] = biological target: Neu5Ac(a2-3)[GalNAc(b1-4)]Gal(b1-4)GlcNAc(b1-3)GalNAc
# Outline: as §1
# [42] = biological target: Neu5Ac(a2-3)[Neu5Ac(a2-6)]GalNAc
# Outline: as §1
# [43] = biological target: Neu5Ac(a2-6)Gal
# Outline: as §1
# [44] = biological target: Neu5Ac(a2-6)Gal(b1-3)GlcNAc(b1-3)[Gal(b1-4)GlcNAc(b1-6)]Gal(b1-4)Glc
# Outline: as §1
# [45] = biological target: Neu5Ac(a2-6)Gal(b1-4)Glc
# Outline: as §1
binder,measurement,setting,value
B1,glycan array binding signal (z-score),[1],-0.224
same,glycan array binding signal (z-score),[2],-0.244
same,glycan array binding signal (z-score),[3],-0.222
same,glycan array binding signal (z-score),[4],-0.231
same,glycan array binding signal (z-score),[5],-0.223
same,glycan array binding signal (z-score),[6],-0.249
same,glycan array binding signal (z-score),[7],-0.235
same,glycan array binding signal (z-score),[8],-0.22
same,glycan array binding signal (z-score),[9],-0.242
same,glycan array binding signal (z-score),[10],-0.196
same,glycan array binding signal (z-score),[11],-0.232
same,glycan array binding signal (z-score),[12],-0.229
same,glycan array binding signal (z-score),[13],0.023
same,glycan array binding signal (z-score),[14],-0.23
same,glycan array binding signal (z-score),[15],0.166
same,glycan array binding signal (z-score),[16],-0.249
same,glycan array binding signal (z-score),[17],-0.172
same,glycan array binding signal (z-score),[18],-0.187
same,glycan array binding signal (z-score),[19],-0.226
same,glycan array binding signal (z-score),[20],-0.221
same,glycan array binding signal (z-score),[21],-0.235
same,glycan array binding signal (z-score),[22],-0.237
same,glycan array binding signal (z-score),[23],-0.231
same,glycan array binding signal (z-score),[24],-0.241
same,glycan array binding signal (z-score),[25],-0.232
same,glycan array binding signal (z-score),[26],-0.231
same,glycan array binding signal (z-score),[27],-0.228
same,glycan array binding signal (z-score),[28],-0.232
same,glycan array binding signal (z-score),[29],-0.236
same,glycan array binding signal (z-score),[30],-0.21
same,glycan array binding signal (z-score),[31],-0.196
same,glycan array binding signal (z-score),[32],-0.202
same,glycan array binding signal (z-score),[33],-0.204
same,glycan array binding signal (z-score),[34],-0.221
same,glycan array binding signal (z-score),[35],-0.234
same,glycan array binding signal (z-score),[36],-0.234
same,glycan array binding signal (z-score),[37],-0.217
same,glycan array binding signal (z-score),[38],-0.236
same,glycan array binding signal (z-score),[39],-0.226
same,glycan array binding signal (z-score),[40],-0.225
same,glycan array binding signal (z-score),[41],-0.094
same,glycan array binding signal (z-score),[42],-0.232
same,glycan array binding signal (z-score),[43],-0.221
same,glycan array binding signal (z-score),[44],-0.225
same,glycan array binding signal (z-score),[45],-0.22
